Laboratory results published in PubChem BioAssay AID2675 (National Center for Advancing Translational Sciences (NCATS), 2010).
Out of some 280,000 compounds screened, about 100 (0.036%) were called active. Inconclusive results, whose numbers are uncertain, are shown with a selection of clear calls. The call rests on the fitted dose curve; in most records, active means well fitted inhibition curve with a large enough effect in the signal ratio, with a control signal flat (not every such curve was filed as active); inconclusive means small, poorly fitted or top-dose-only effect, or effect the other way, or a change in a side signal; inactive means no such curve, though single readings can be large or run the other way; the % refers to the signal ratio. Potencies beside an inconclusive call are fits to weak or partial responses and may not hold up. A note “side channel” means that the fit belongs to a control or component signal, not to the main read-out.

biological target: Muscleblind-like protein 1 (Homo sapiens) (UniProt Q9NR56); experiment: qHTS Assay for Inhibitors of MBNL1-poly(CUG) RNA binding; conditions: TR-FRET MBNL1-His/biotin-(CUG)12 binding, 665/545 ratio; series mostly up to 57.5 µM
UniProt Q9NR56, sequence (Q9NR56 whole entry, looked up): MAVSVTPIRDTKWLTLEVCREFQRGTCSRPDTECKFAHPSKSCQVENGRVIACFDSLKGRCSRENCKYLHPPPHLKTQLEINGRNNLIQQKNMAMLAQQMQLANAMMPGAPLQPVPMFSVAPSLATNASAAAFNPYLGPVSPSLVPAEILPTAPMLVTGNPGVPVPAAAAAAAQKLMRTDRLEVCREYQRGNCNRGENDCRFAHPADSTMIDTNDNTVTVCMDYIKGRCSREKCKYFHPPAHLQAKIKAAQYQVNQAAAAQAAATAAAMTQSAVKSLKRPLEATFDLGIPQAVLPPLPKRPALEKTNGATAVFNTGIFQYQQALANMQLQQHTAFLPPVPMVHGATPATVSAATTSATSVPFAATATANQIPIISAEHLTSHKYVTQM
In short: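 TR-FRET readout: Ex 340 nm, 665/545 nm emission ratio, normalized to buffer-only (basal) and MBNL1-(CUG)12 controls. Complex of MBNL1-His with Biotin-(CUG)12, compounds 92 nM–58 uM, incubated 60 min at room temperature.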
Potency means the concentration at half of the fitted maximal effect; tags describe the fitted curve by direction and shape or compound fluorescence and quenching.

Row | SMILES | Potency
1 | N#Cc1ccc(COC(=O)c2cnc3ccccc3n2)cc1 | inconclusive: 3.55 µM [quencher, side channel, full curve]
2 | CCN(c1nc(N)c(C(=O)N=C(N)N)nc1Cl)C(C)C | inconclusive: 8.91 µM [quencher, side channel, partial curve]
3 | COc1ccc(NC(=O)Cn2c(=O)n(CC3CCCO3)c(=O)c3cc(OC)c(OC)cc32)cc1OC (stereo not drawn) | inactive
4 | CNS(=O)(=O)c1cc(O)c2c(S(=O)(=O)NC)cccc2c1 | inconclusive: 0.794 µM [quencher, side channel, full curve, poor fit]
5 | CN(C)c1nc(Cl)nc(N(C#N)CCOc2ccccc2)n1 | inactive
6 | O=C(NCC1CCCO1)c1sc(=S)n2c1[nH]c(=O)c1ccc(C(=O)N3CCCCC3)cc12 (stereo not drawn) | inconclusive: 17.8 µM [quencher, side channel, partial curve]
7 | O=C(Nc1cc([N+](=O)[O-])ccc1N1CCCC1)c1ccco1 | inconclusive: 25.1 µM [quencher, side channel, partial curve]
8 | NCCN1C(=O)S/C(=C\c2ccc3c(c2)OCO3)C1=O | inconclusive: 7.94 µM [quencher, side channel, partial curve]
9 | Cc1ccn2c(NCc3ccc4c(c3)OCO4)c(-c3ccc(O)cc3)nc2c1 | inactive
10 | FC(F)(F)c1ccc2c(c1)[nH]c(=S)n2C1CC1 | inactive
11 | COc1ccc(CNC(=O)CN(C(=O)CCC(=O)Nc2ccccn2)c2cccc(C)c2)cc1 | inactive
12 | CCCn1c(SCC(=O)NC(=O)NC(C)(C)C)n[nH]c1=O | inactive
13 | Nc1c(C(=O)N/N=C/c2cccnc2)oc2nc(-c3ccco3)cc(-c3ccco3)c12 | inconclusive: 28.2 µM [quencher, side channel, single point]
14 | Cc1ccc([N+](=O)[O-])c(C)[n+]1C | inconclusive: 20 µM [quencher, side channel, partial curve]
15 | Cc1ccc(C)c(N2CCN(C(=O)CSc3ccsc3[N+](=O)[O-])CC2)c1 | inconclusive: 3.16 µM [quencher, side channel, single point]
16 | COc1ccc(CC(=O)N/N=C/c2cc(Br)cs2)cc1OC | inconclusive: 17.8 µM [quencher, side channel, partial curve]
17 | COc1ccc(/C=N/Nc2cc(N3CCOCC3)nc(C)n2)c(OC)c1 | inconclusive: 25.1 µM [quencher, side channel, single point]
18 | NS(=O)(=O)c1ccc(NCC2COc3ccccc3O2)c([N+](=O)[O-])c1 (stereo not drawn) | inconclusive: 11.2 µM [quencher, side channel, partial curve]
